The values that follow come from ChEMBL document CHEMBL4888484, “Replenishing the malaria drug discovery pipeline: Screening and hit evaluation of the MMV Hit Generation Library 1 (HGL1) against asexual blood stage Plasmodium falciparum ,using a nano luciferase reporter read-out” (2022).

In all, about 150,000 compounds went through this assay and about 540 (0.36%) showed an effect of 50% or more. Some of the results follow.

This assay relates to Plasmodium falciparum. Kind of assay: Primary screen in NF54 nanoGlo assay, in single point, at 2uM, 72h; a lower Z score goes with more inhibition. It counts as functional, Erythrocyte. Particulars: timepoint 72 hour.
Broadly, the % Inhibition is the change of the read-out against control, counted positive when it falls. In the case of `CC1(CON=C(N)CN2CCOCC2)CCC1`, the “% Inhibition” value is listed as -18% and the Z score is 3.09.
Turning to `CC(NC(=O)C1C2CCC(C2)N1C(=O)NC1CCCCC1)c1ccccc1` (configuration not stated), the “% Inhibition” value was 14% and the Z score is given as -1.42.
As to `O=S(=O)(c1ccc2c(c1)CCCC2)N(CCN1CCCCC1)[C@H]1CCNC1`, the “% Inhibition” value was 8% and the Z score is recorded as -1.23.
With `CN(Cc1nnc(C2CCC2)o1)c1cccc(O)c1`, the “% Inhibition” value is on record as -2% and the Z score came out at 0.25.
As to `Cn1c(NC(=O)CCCCC(N)=O)nc2cccc(Cl)c21`, the “% Inhibition” value is given as -1% and the Z score is 0.14.
For `CCC(=O)NCCc1csc(C2CCN(C(=O)Nc3ccc(C)cc3)CC2)n1`, the “% Inhibition” value is on record as -3% and the Z score amounted to 0.31.
On to `C#CCNC(=O)CC(=O)NCCOc1cccc(Cl)c1Cl`, for which the “% Inhibition” value is reported as -4% and the Z score is 0.58.
As for `COc1cccc(-c2nc3c(OCc4ccccc4)cccn3c2NC2CCCCC2)c1`, the “% Inhibition” value is listed as -9% and the Z score is listed as 1.55.
As for `CCCC(=O)N1C[C@H](C(=O)O)[C@@H](c2ccccc2OC)C1`, the “% Inhibition” value turned out to be 2% and the Z score was -0.3.
With `O=C(NC1CCOC1c1ccc(F)c(F)c1)N1CCC(CO)CC1` (configuration not stated), the “% Inhibition” value is recorded as -2% and the Z score is listed as 0.3.
On to `O=C(c1ccco1)N1CCN(c2ccc(C(F)(F)F)nn2)CC1`, for which the “% Inhibition” value was -5% and the Z score is listed as 0.54.
On the same counts, the results for `O=c1[nH]c(CNc2nc(C3CC3)nc3c2CCC3)nc2c1COCC2` are -10% and 1.9.
On to `CCc1cnc(N)nc1N1CCN(c2nccc(OC)n2)CC1`, for which the “% Inhibition” value is recorded as -15% and the Z score came out at 2.49.
Turning to `Cc1csc([C@H](C)NC(=O)c2c[nH]c(=O)c(Cl)c2)n1`, the “% Inhibition” value was -13% and the Z score was determined as 1.33.
Consider `Cn1c(Cc2cn3ccccc3n2)nnc1N1CCOC(C)(C)C1`, for which the “% Inhibition” value is -2% and the Z score worked out at 0.2.
Regarding `COCc1nc(Cn2cnc(-c3ccccc3)c2-c2cc(C)cc(C)c2)no1`, the “% Inhibition” value is -2% and the Z score is given as 0.39.
For `C=CCN1CCC(N[C@H]2CCc3ccccc3C2)CC1`, the “% Inhibition” value is -9% and the Z score is 0.87.
The matching figures for `Cn1cncc1-c1ccc(C(=O)N2CCN(c3cnccn3)CC2)cc1`: -7% and 1.13.
Turning to `COc1ccc2cc1Oc1cccc(c1)CO[C@H]1CN(c3cc(C(=O)N4CCOCC4)ccn3)C[C@@H]1NC(=O)CN(C)C2`, the “% Inhibition” value is reported as 1% and the Z score is recorded as -0.17.
Regarding `CC(C)(C)C1CCC2(CC1)NCCN=C2NCc1cccc(F)c1` (configuration not stated), the “% Inhibition” value is on record as -2% and the Z score was determined as 0.23.
`CN(C)S(=O)(=O)Nc1ccn(-c2ccc(C#N)cc2F)n1`: the “% Inhibition” value came out at 3% and the Z score is recorded as -0.54.
On the same counts, the results for `O=C(Cc1cccs1)N1CCN(c2ccccc2F)CC1` are -3% and 0.51.
Consider `O=C(NC(c1ccccc1)c1ccccc1)c1cc2c(s1)CCCC2`, for which the “% Inhibition” value is given as 5% and the Z score is -0.49.
Consider `COc1cccc(OC2CN(C[C@H]3COc4ccccc4O3)C2)c1`, for which the “% Inhibition” value was 3% and the Z score is -0.59.
Turning to `C[C@H]1CCCN(C(=O)CCN2C(=O)c3ccccc3C2=O)C1`, the “% Inhibition” value is -6% and the Z score is listed as 1.15.
In the case of `Cc1nc(C)c(Br)c(N2CCN(c3ccnnc3)CC2)n1`, the “% Inhibition” value is -15% and the Z score is given as 3.02.
`Cn1nnc2c1CCN(C(=O)C1CCN(S(=O)(=O)c3ccc4c(c3)CCC4)CC1)C2`: the “% Inhibition” value was -9% and the Z score is reported as 0.97.
On to `O=C(c1ccccc1F)N(Cc1nccn1Cc1c(F)cccc1Cl)C1CC1`, for which the “% Inhibition” value was found to be 45% and the Z score is -6.44.
For the compound `CCN(CC)CCOc1ccc(C#N)cc1`, the “% Inhibition” value is given as 12% and the Z score is -2.2.
For `CC1(C)CCC(F)C1NCC1CCCNC1=O` (configuration not stated), the “% Inhibition” value is -14% and the Z score is 2.16.
The matching figures for `Cc1cc(=O)cc(C(=O)NC2(c3ccccc3C)CC2)[nH]1`: -9% and 1.31.
The matching figures for `CNS(=O)(=O)CCCN[C@@H](C)c1cccc(C)c1C`: -10% and 0.9.
Take `Nc1nnnn1CC(=O)N[C@H]1CCC[C@H]1Cc1ccc(F)cc1`: the “% Inhibition” value is -8% and the Z score worked out at 1.1.
With `O=C(NC1CCOCC1)c1ccc(-c2ccc(F)c(F)c2F)cn1`, the “% Inhibition” value stood at 34% and the Z score is recorded as -4.63.
Take `C[C@H]1CCCN(c2nc(-c3cnn(C)c3)cs2)C1`: the “% Inhibition” value is on record as 15% and the Z score is -2.04.
`Cc1ccc(-c2n[nH]c(C3CC3)c2NC(=O)Cc2cccs2)c(C)c1`: the “% Inhibition” value stood at 4% and the Z score is listed as -0.55.
The matching figures for `CCCN1C(=O)N[C@@H](Cc2nc(C)nn2-c2ccc(C)cc2C)C1=O`: -2% and 0.33.
Turning to `Cc1nnc(NCc2cc3n(n2)CCCN(CC(C)C)C3)o1`, the “% Inhibition” value is -19% and the Z score is 1.77.
With `CS(=O)(=O)[C@H]1CCCN(C(=O)c2cc3ccccc3s2)CC1`, the “% Inhibition” value is -9% and the Z score is 1.64.
As for `O=C(C[C@H]1COCCN1)Nc1nncn1Cc1ccccc1`, the “% Inhibition” value was -8% and the Z score turned out to be 1.45.
The matching figures for `O=C(CCCN1C(=O)c2cccnc2Oc2ccccc21)NCc1ccc(F)cc1`: -1% and 0.15.
On the same counts, the results for `O=C1CN(CCc2ccccc2)C(=O)N1c1cc(-c2ccccc2)ns1` are -14% and 2.16.
On the same counts, the results for `c1ccc(-c2cn[nH]c2C2CCN(c3cnccn3)CC2)cc1` are 1% and -0.25.
Consider `O=C(O)c1ccc(CC(=O)N2CCC3(c4ccccc4)C(C2)C3(F)F)cc1` (configuration not stated), for which the “% Inhibition” value was -5% and the Z score stood at 0.85.
Consider `COc1cccc(N2CCN(C(=O)[C@H]3CC(=O)N(c4ccc5oc(C)nc5c4)C3)CC2)c1`, for which the “% Inhibition” value was 5% and the Z score is -0.94.
With `O=C(CCC1CCCC1)N[C@H]1CCN(c2ccc(=O)[nH]n2)C1`, the “% Inhibition” value is -13% and the Z score worked out at 1.68.
`CC(C)c1cc(NC(=O)NCc2ccc3c(c2)CC(C)(C)O3)n(C)n1`: the “% Inhibition” value is recorded as -2% and the Z score is recorded as 0.4.
With `O=S(=O)(NC1(C(F)(F)F)CCOCC1)c1ccc(Cl)cc1`, the “% Inhibition” value is recorded as -3% and the Z score stood at 0.33.
Take `O=C(NC(CO)C(O)c1ccccc1)C(F)(F)F` (configuration not stated): the “% Inhibition” value came out at 0% and the Z score worked out at 0.04.
Consider `Cc1ccc2c(C(=O)Nc3ccc4c(c3)OCCO4)cc(NC(=O)C(C)C)cc2n1`, for which the “% Inhibition” value was -11% and the Z score was found to be 1.6.
With `Cc1cc(F)ccc1S(=O)(=O)N1CC[C@H](n2ccnn2)C1`, the “% Inhibition” value is -17% and the Z score stood at 2.19.
Regarding `O=C1[C@@H]2CCCN2C(=O)N1CCOCC(F)(F)C(F)F`, the “% Inhibition” value was -9% and the Z score was 1.18.
Consider `CCCC[C@H](CC)CNC(=O)c1scnc1C`, for which the “% Inhibition” value is on record as 3% and the Z score is listed as -0.3.
Consider `CC(=O)c1cnc(N2C[C@@H]3[C@H](C2)[C@H]2CC[C@@H]3O2)nc1C`, for which the “% Inhibition” value is reported as -12% and the Z score amounted to 1.97.
The matching figures for `COc1ccc(C2(NCc3cn(C)cn3)CCOCC2)cc1F`: -13% and 1.52.
`COc1ccccc1C1(CNC(=O)C2CCCCC2)CCOCC1`: the “% Inhibition” value was -2% and the Z score was found to be 0.33.
`O=C(CCc1ccccc1)N1CCC(F)(C(=O)N2CCOCC2)CC1`: the “% Inhibition” value is reported as -1% and the Z score was found to be 0.16.
On to `CC1C(C)S(=O)(=O)CCN1C(=O)c1ccc(Cl)cc1` (configuration not stated), for which the “% Inhibition” value was determined as 2% and the Z score is -0.26.
Consider `CCCc1cnc(C)nc1N1CCC2(CC1)C[C@@H](C(=O)O)N(C(C)=O)C2`, for which the “% Inhibition” value stood at 16% and the Z score is reported as -2.01.
In the case of `CCN1CC2(CCN(Cc3cc(F)ccc3C(F)(F)F)CC2)OC1=O`, the “% Inhibition” value was -26% and the Z score was determined as 2.37.
Take `COc1ccc(-c2nc(N3CCC(C)CC3)nc3nn(C)c(N)c23)cc1OC`: the “% Inhibition” value is -1% and the Z score was determined as 0.08.
In the case of `O=C(COc1ccccc1)N1CCC2(CCC(=O)N(C[C@H]3CCCO3)C2)CC1`, the “% Inhibition” value is -5% and the Z score came out at 0.84.
The matching figures for `N#Cc1ccc(NCC2(CO)CCC2)cc1`: -9% and 1.21.
On to `Fc1ccccc1[C@@H](F)C1CCN(c2cc(N3CCOCC3)ncn2)CC1`, for which the “% Inhibition” value is -10% and the Z score is given as 1.04.
Regarding `CCc1nc(C(C)C)nc(N2CCN(C(=O)c3ccc(F)cc3)CC2)c1Cc1cccc(C(F)(F)F)c1`, the “% Inhibition” value is 1% and the Z score is on record as -0.1.
`CCC(CC)CN(CC)C(=O)c1nccnc1C(=O)OC(C)(C)C`: the “% Inhibition” value is reported as -1% and the Z score was 0.17.
As to `Cc1ccc(-c2ccc(=O)[nH]n2)cc1NC(=O)c1cn(CC[C@H]2CCCCN2)nn1`, the “% Inhibition” value was -6% and the Z score came out at 1.
`O=S(=O)(CCCOc1ccccc1)N1CC(n2ccnn2)C1`: the “% Inhibition” value is listed as -13% and the Z score is reported as 1.44.
For the compound `O=C1C2C(c3cccnc3)NC(c3cccnc3)C1C(c1cccnc1)NC2c1cccnc1` (configuration not stated), the “% Inhibition” value is -9% and the Z score worked out at 1.69.
With `CC[C@H]1OCC[C@@H]1NS(=O)(=O)c1sccc1Cl`, the “% Inhibition” value is on record as 3% and the Z score was -0.69.
For the compound `COc1cc(F)ccc1-c1ccnc2nc(-c3ccco3)nn12`, the “% Inhibition” value is reported as -11% and the Z score is 1.34.
As for `CC(C)[C@H]1CN(C2CCCC2)C[C@@H]1NC(=O)c1ccnn1C`, the “% Inhibition” value is on record as -5% and the Z score is 0.49.
Take `CN1CCC(N(Cc2ccncc2)C(=O)Nc2ccc3c(c2)OCO3)CC1`: the “% Inhibition” value is reported as -16% and the Z score amounted to 3.11.
For `CCOc1cc([C@@H]2c3nc[nH]c3CCN2Cc2[nH]cnc2C)ccc1O`, the “% Inhibition” value is recorded as -5% and the Z score was determined as 0.83.
On the same counts, the results for `Cc1ccc(-n2cc(-c3noc(-c4ccc[nH]4)n3)nn2)cc1` are -6% and 1.16.
The matching figures for `COc1ccc(OC)c(NC(=O)N(C)[C@H]2COC[C@@H]2O)c1`: -9% and 1.72.
Regarding `O=C(Nc1ccsc1)c1cc(N2CCNC2=O)ccc1F`, the “% Inhibition” value was -5% and the Z score is given as 0.64.
The matching figures for `Cc1ccc(Cn2c(=O)c(C(=O)NCc3cccnc3)nn(-c3ccccc3F)c2=O)cc1`: -3% and 0.48.
On to `COc1cc(CN2CC[C@H](c3ccccn3)C2)ccc1O`, for which the “% Inhibition” value is -9% and the Z score turned out to be 0.88.
Regarding `CN(Cc1cscn1)c1ncccc1C(=O)Nc1ccc(Br)cc1`, the “% Inhibition” value is -7% and the Z score is listed as 0.61.
The matching figures for `N#C[C@@H](NC(=O)CCc1ccc(Cl)s1)c1ccsc1`: -1% and 0.08.
Take `COCc1nsc(N2CCC(CN3CCCCC3=O)CC2)n1`: the “% Inhibition” value is on record as -14% and the Z score is 1.62.
In the case of `CCCN(CCC)c1ccc(NS(=O)(=O)c2ccc(Cl)s2)cc1C(=O)O`, the “% Inhibition” value is recorded as -2% and the Z score is on record as 0.18.
In the case of `Cc1ocnc1CNc1cncc(-n2ccnc2C)n1`, the “% Inhibition” value was 32% and the Z score is -3.65.
In the case of `COC[C@@H]1C[C@@H](OC)CN1C(=O)NCc1ccnc(C)c1`, the “% Inhibition” value was -3% and the Z score is recorded as 0.47.
Take `COc1ccc(-c2cc3c(=O)n(CCNC(=O)Cc4ccc(F)cc4)ccn3n2)cc1`: the “% Inhibition” value is listed as -7% and the Z score was 1.17.
